Assay results: paper PMC4342298 (Biochimica et biophysica acta, 2014)

Target: the molecule itself
Test: SEC

| Protein | binding result |
| --- | --- |
| apoE3 C112S/S290C-pyrene (natural protein, N-(1-pyrene)maleimide on the cysteine at 290 (S290C-pyrene)) not shown | binds |
| apoE4 S290C-pyrene (natural protein, N-(1-pyrene)maleimide on the cysteine at 290 (S290C-pyrene)) not shown | binds |
| human apolipoprotein E3 (intact apoE3) (natural protein) not shown | binds |
| human apolipoprotein E4 (intact apoE4) (natural protein) not shown | binds |
